# The whole screen tested about 310,000 compounds, of which about 14,000 (4.5%) showed an effect of 50% or more. Effects have a minus sign here. The list shows a part of the results.
# Target: human ether-à-go-go-related gene (hERG) potassium channel (human, UniProt Q12809)
# Assay: primary screen, population patch clamp on CHO cells stably expressing hERG
# 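Also: peak tail current of the secondary pulse compared with the same well before compound.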
# Sequence of human ether-à-go-go-related gene (hERG) potassium channel (Q12809 whole entry, looked up): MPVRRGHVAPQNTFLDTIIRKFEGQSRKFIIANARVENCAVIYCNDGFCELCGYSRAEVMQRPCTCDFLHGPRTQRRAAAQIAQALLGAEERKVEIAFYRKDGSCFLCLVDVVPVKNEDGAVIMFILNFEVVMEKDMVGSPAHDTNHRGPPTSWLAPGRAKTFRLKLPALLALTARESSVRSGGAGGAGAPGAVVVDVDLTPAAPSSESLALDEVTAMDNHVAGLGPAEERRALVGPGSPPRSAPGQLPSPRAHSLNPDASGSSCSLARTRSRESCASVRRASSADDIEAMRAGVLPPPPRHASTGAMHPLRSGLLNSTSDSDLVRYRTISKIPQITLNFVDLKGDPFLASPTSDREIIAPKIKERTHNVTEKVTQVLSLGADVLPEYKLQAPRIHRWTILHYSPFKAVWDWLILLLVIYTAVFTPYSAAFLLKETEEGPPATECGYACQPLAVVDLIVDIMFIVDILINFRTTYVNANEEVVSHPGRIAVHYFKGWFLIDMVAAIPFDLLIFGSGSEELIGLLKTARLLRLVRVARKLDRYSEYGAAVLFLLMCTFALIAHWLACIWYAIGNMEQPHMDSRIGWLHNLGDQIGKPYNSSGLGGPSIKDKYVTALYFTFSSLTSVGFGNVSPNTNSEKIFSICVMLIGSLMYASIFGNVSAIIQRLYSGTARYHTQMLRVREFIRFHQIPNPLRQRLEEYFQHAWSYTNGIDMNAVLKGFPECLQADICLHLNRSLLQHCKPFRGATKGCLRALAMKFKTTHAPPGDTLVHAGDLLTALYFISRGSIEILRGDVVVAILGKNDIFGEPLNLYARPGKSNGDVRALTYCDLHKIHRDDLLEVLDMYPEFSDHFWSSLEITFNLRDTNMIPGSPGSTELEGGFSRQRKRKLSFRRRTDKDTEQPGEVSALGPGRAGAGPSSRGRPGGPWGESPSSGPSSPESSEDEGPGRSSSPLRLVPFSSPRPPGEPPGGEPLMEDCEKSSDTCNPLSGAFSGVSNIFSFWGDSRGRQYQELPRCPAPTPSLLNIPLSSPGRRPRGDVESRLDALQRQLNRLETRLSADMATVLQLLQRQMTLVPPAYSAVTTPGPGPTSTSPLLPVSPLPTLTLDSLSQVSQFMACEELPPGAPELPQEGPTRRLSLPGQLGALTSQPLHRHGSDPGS
row,Structure (SMILES),"hERG current change (%, negative = inhibition) at 10uM"
1,O=c1c(Br)c(N2CCCCC2)cnn1-c1ccccc1,-16.5%
2,O=C(NCC1CCCN1S(=O)(=O)c1cccs1)c1ccc(F)c(F)c1 (stereo not drawn),-14.7%
3,CCC(=O)Nc1ccc(C(=O)COC(=O)CCN2C(=O)C3CC=CCC3C2=O)cc1 (stereo not drawn),8.6%
4,CCC(C)(C)n1nnnc1C(c1ccc(C)cc1)N1CCN(Cc2ccc3c(c2)OCO3)CC1 (stereo not drawn),-50.3%
5,N#C/C(=C\c1ccc2c(c1)OCO2)C(=O)NCc1ccco1,11.6%
6,CCn1c(COc2ccccc2C)nnc1SCC(=O)CC(=O)Nc1ccccc1OC,-11.7%
7,CCOC(=O)C(=NC1CCCCC1)NNc1cccc(C(F)(F)F)c1,1.54%
8,CC(CCc1ccccc1)NC(=O)c1ccco1 (stereo not drawn),13.8%
9,COc1cccc(OC)c1OCCOc1ccc(C(=O)c2ccccc2)cc1,-4.82%
10,Cc1ccc(-n2c(O)c(C=Nc3ccc4c(c3)OCO4)c3ccccc3c2=O)cc1C,-6.15%
11,O=C(NCC(c1ccco1)N1CCN(c2ccccc2F)CC1)OCc1ccccc1 (stereo not drawn),-13%
12,O=C(Nc1cccnc1)c1cnn2cccnc12,-20.1%
13,CN(c1ccc(OCC(=O)OCC(=O)c2c(N)n(C)c(=O)n(C)c2=O)cc1)S(=O)(=O)c1ccc2ccccc2c1,-0.746%
14,COC(=O)c1ccc(CNC(=O)c2ccc(OCC(=O)N3CCOCC3)c(OC)c2)cc1,11.8%
15,Cc1cccc(N2CCN(C(=O)CNC(=O)c3ccccc3)CC2)c1C,-30.6%
16,COCCCN1C(=O)C(=O)/C(=C(/O)c2ccc(C)cc2)C1c1ccccc1 (stereo not drawn),9.22%
17,CCC(C)NC(=O)CSc1n[nH]c(=O)n1CCc1ccccc1 (stereo not drawn),-4.84%
18,CNC[C@H](O)[C@@H](O)[C@H](O)[C@H](O)CO.Cc1c(Nc2ncccc2C(=O)O)cccc1C(F)(F)F,10.9%
19,O=C(CSc1nnc(SCc2ccc(Cl)cc2)s1)N1CCN(C(=O)c2ccco2)CC1,-33.7%
20,NC(=O)C1CC(=O)N(Cc2ccc3c(c2)OCO3)C(=Nc2ccccc2)S1 (stereo not drawn),9.5%
21,Cc1ccc(CN2CCN(Cc3ccc4c(c3)OCCO4)CC2CCO)cc1 (stereo not drawn),-39.8%
22,N#Cc1ccccc1S(=O)(=O)N1CCN(C(=O)c2cc(=O)[nH]c3ccccc23)CC1,4.62%

row,Structure (SMILES),"hERG current change (%, negative = inhibition) at 10uM"
1,O=C(N/N=C/c1cc2c(cc1Cl)OCO2)c1ccccn1,18.5%
2,Cc1[nH]c2ccccc2c1/C=N/n1cnnc1,10.2%
3,CN1C(=O)CC(N2CCN(c3ccc(Cl)c(Cl)c3)CC2)C1=O (stereo not drawn),-26.4%
4,Cc1cccc(CCNCc2cc3cccc(C)c3[nH]c2=O)c1,-64.1%
5,CNc1nc(-c2c(C)n(C)c3ccc(OC)cc23)cs1,19.2%
6,COc1ccc(-c2cc(C(=O)NC3CCCC3)c3ccccc3n2)cc1OC,6.47%
7,CCC(C)[C@@H]1NC(=O)N(CCCN2CCCC2=O)C1=O (stereo partly drawn),14.9%
8,CCOc1ccc(OCCOCCOc2c(Cl)cccc2Cl)cc1,-0.499%
9,O=C(Nc1ccc2c(c1)Cc1ccccc1-2)c1cccnc1,9.56%
10,O=c1cc(O)c2c(=O)n(Cc3ccccc3)c3ccccc3c2o1,13.1%
11,CCOP(=O)(OCC)c1nc(-c2ccc(Cl)cc2Cl)oc1N1CCCCC1,-34.8%
12,N#Cc1cc(F)c(N2CCNCC2)cc1Cl,3.42%
13,CCN1CCN(CC(O)COc2ccc(C(C)=O)cc2)CC1.Cl (stereo not drawn),2.15%
14,CCCC(=O)c1cc(F)c(N2CCN(C(=O)OCC)CC2)cc1C,-2.77%
15,COc1ccc(CCN(C)C(=O)Cc2ccc(-c3ccccc3)cc2)cc1OC,-0.187%
16,CC(C)(C)S(=O)(=O)c1cnc(N2CCCCC2)nc1N,10.5%
17,CN(C)CCCN(C(=O)COc1ccccc1)c1nc2ccc(Cl)cc2s1.Cl,-67.1%
18,CS(=O)(=O)N(CC(=O)N1CCN(Cc2ccccc2)CC1)c1cccc(Cl)c1,-63.8%
19,COC(=O)C1=C(c2cccc(C#N)c2)C[C@@H]2CC[C@H]1N2C(=O)NCc1ccco1,-11.1%
20,CC(=O)N1N=C(c2cccc([N+](=O)[O-])c2)OC1c1cccc(Br)c1 (stereo not drawn),-19.9%
21,COc1ccc([C@H]2CC(=O)C=C(c3ccc4[nH]ccc4c3)C2)cc1OC,9.42%
22,O=C1NCCN(Cc2ccc(Cl)c(F)c2)C1CC(=O)N1CCCO1 (stereo not drawn),12.1%

row,Structure (SMILES),"hERG current change (%, negative = inhibition) at 10uM"
1,COc1ccc(OC)c(N/C=C/C(=C(C#N)C#N)N(C)C)c1,-6.32%
2,COc1ccc(NC(C)=O)cc1NC(=O)CCn1c(=O)sc2ccccc21,-2.39%
3,CO/N=C(/CS(=O)Cc1ccc(Cl)cc1)c1ccc(Cl)cc1 (stereo not drawn),-12.6%
4,CCC(=O)N/C(N)=N/c1nc(C)c2cc(OC)ccc2n1,-17.5%
5,COc1cc(CN(C(=O)c2ccco2)C2CCS(=O)(=O)C2)cc(OC)c1OC (stereo not drawn),15.4%
6,O=C(O)C(=O)O.O=C1CCCN1CN1CCCCC1,0.00358%
7,Cc1cccc(CNc2ccc(C(CC(N)=O)NC(=O)c3cccc(Br)c3)cc2[N+](=O)[O-])c1 (stereo not drawn),-19.8%
8,COc1cccc(SCc2noc(C(=O)NCCC(C)C)c2C(=O)NCCC(C)C)c1,12.4%
9,COc1ccc(C(OC(=O)c2ccco2)C(=O)NC2CCCCC2)cc1 (stereo not drawn),7.11%
10,C[N+]1(CC(=O)NNc2c3ccccc3nc3ccccc23)CCOCC1.[Br-],3.64%
11,O=C(c1ccc(F)cc1F)N1CCN(S(=O)(=O)c2ccc3c(c2)OCCO3)CC1,-14.1%
12,OC(Cn1ccnc1)c1ccc(Cl)cc1Cl (stereo not drawn),-5.76%
13,Cc1cccc(N2CCN(C(=O)Cc3c(C(=O)O)[nH]c4ccc(Cl)cc34)CC2)c1C,7.86%
14,COc1ccccc1C(=O)Nc1nc2ccc(S(C)(=O)=O)cc2s1,-17.2%
15,Cc1ncc(CN2CCC(C(=O)Nc3cccc(-c4cscn4)c3)CC2)cn1,-11.9%
16,CCCS(=O)(=O)c1nnnn1-c1cccc(OC)c1,-23.9%
17,O=C(Cc1ccccc1)Nc1ccc2c(c1)CCC2,-13.2%
18,COC(=O)[C@@]1(C#N)[C@@H]2C=CC(C(C)=O)=CN2[C@@H](C(N)=O)[C@@H]1c1ccc(F)cc1,-5.5%
19,O=[N+]([O-])c1cccc(-c2noc3c2-c2nc(Cc4cccc5ccccc45)sc2CC3)c1,16.6%
20,CC(C)CCNC(=O)CN(Cc1ccco1)C(=O)CCC(=O)Nc1nccs1,-9.38%
21,Cc1cc(=O)oc2cc(OCC(=O)NCCN3CCOCC3)c(Cl)cc12,16.8%
22,CCOc1ccc(NC(=O)NC2CCOC(C)(C)C2)cc1 (stereo not drawn),-14.2%

row,Structure (SMILES),"hERG current change (%, negative = inhibition) at 10uM"
1,O=C(CNC(=O)c1ccccc1Cl)N/N=C/c1ccc([N+](=O)[O-])s1,-24.6%
2,O=C(N/N=C/c1sc(N2CCCCC2)nc1-c1cccs1)c1cccnc1,11.8%
3,C=CCOc1ccc(/C(O)=C2/C(=O)C(=O)N(CCN3CCOCC3)C2c2ccc(C)cc2)cc1 (stereo not drawn),-8.77%
4,Cc1cccc(OCc2ccc(C(=O)N3CCOCC3)o2)c1,15%
5,Fc1ccc(NC(=S)N2CCCC(c3ccccc3)=N2)cc1,-3.2%
6,Cc1ccc2cccc(S(=O)(=O)NC3CCS(=O)(=O)C3)c2n1 (stereo not drawn),-7.02%
7,CC1CCCN(C(=O)Cn2nnc(-c3ccc([N+](=O)[O-])cc3)n2)C1 (stereo not drawn),-11.7%
8,CC/C(=N\NC(=O)C1CC1)c1cccc(Cl)c1,30.9%
9,COc1ccc(OC)c(C2=C[N+](=O)C(C)(C)C(C)(C)N2[O-])c1,-3.85%
10,CCC1CCC(C(=O)NC(CCSC)C(=O)NCCN(CC(C)C)CC(C)C)CC1 (stereo not drawn),-34.4%
11,CC(C)(C)NC(=O)CN(C(=O)CS(=O)CC(=O)Nc1ccc(F)cc1)c1ccc2c(c1)OCCO2 (stereo not drawn),6.88%
12,CC(C)C(CC(=O)N1CCCCC1)C1CCOC(C)(C)C1 (stereo not drawn),-2.24%
13,COc1ccc(NCC(=O)N2CCCC2)cc1Cl,8.2%
14,O=c1[nH]nc(CNc2ccc(OC(F)(F)F)cc2)c2ccccc12,-27.2%
15,COc1ccc(N2CCN(CC(=O)Nc3c(C)cc(C)cc3C)CC2)cc1,0.738%
16,CC(C)n1cnc2c(oc3ccccc32)c1=O,3.35%
17,COc1ccc(OC)c(C(=O)N(C)C2CCCN(Cc3ccccc3F)C2)c1 (stereo not drawn),-4.14%
18,COc1ccc2nc(NC(=O)C3CCN(S(=O)(=O)c4cccc5nsnc45)CC3)sc2c1,0.473%
19,CCOCCCNC(=O)CCc1ccc(S(=O)(=O)Nc2ccc(C)cc2)cc1,7.79%
20,O=C(c1ccc(Br)cc1)N(C1=NCCCCS1)c1ccccc1,-4.82%
21,C/C=C(\C)CN1CCC(n2nccc2NC(=O)CCOc2ccccc2)CC1,-31.5%
